Source: the supplement of paper PMC11417369
The list shows a part of the results.

These sequences were tested on PfHDP1 homeodomain (GST-tagged) (assay: gcPBM binding intensity (ln(normalized median fluorescence intensity)); higher = stronger DNA binding).
Outline: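 After 1 h on an Agilent 4 × 180k array of primer-extended double-stranded 36-bp intergenic genomic probes and negative controls, bound GST-tagged P. falciparum DNA-binding domains were detected with Alexa488 anti-GST antibody and scanned at 488 nm. The domains had been expressed in E. coli, and binding took place in 1× PBS with 1% milk, 0.2 mg/ml BSA, 0.5% salmon testes DNA and 0.03% Triton X-100. Binding intensity is the highest Masliner-normalised natural-log median intensity across replicate spots of either probe orientation.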

Sequence	gcPBM binding intensity (ln)
AAAAATGTATGTATGGTGCAGTATTCATATCATTTT [GTGCAC_site9458]	7.53
AAAATGAACAAACACACACACATATATATATATATA [CACACA_site2403]	9.15
TTATTGTGTAAGATGATTTTCTTCGTCACTTTGAAA [CACACA_negctrl_site1814]	5.77
AATAAAAAAGGAAACAAATTAATATATATATATATA [CACACA_negctrl_site467]	9.19
TATATTTGGAAAACATGTACATATAACAATATGTAA [XGTACX_site324]	6.4
AAAAAAAGAAATAATAAAAAATATATATATATATAT [GTGCAC_negctrl_site702]	9.39
CGTACATAATTTTAATCACACACAAACAAACACATA [CACACA_site7947]	7.11
TGTTTTGTTGTGTATTGTACTAATATAAATATATAA [XGTACX_site1852]	6.94
TAAAAAAACGCACTCGTACACACATATTTTCTTTCT [CACACA_site3090]	7.28
TTTTATGATTGACACACACACAAAAAAAAAAAAAAA [CACACA_site7860]	6.37
AAGACACAAAAACACACACACATACATACATACATA [CACACA_site454]	6.9
TATGTTGATGATGATAGTACATATGAGTTCAAAAAA [XGTACX_site7712]	6.55
TAAAAATATAGGTATACACACATATAAATATAAATA [CACACA_site7785]	6.38
CTTATACATAAATTTTGTACACACAAAAAAAAAAAA [XGTACX_site2665]	6.57
ATAAATATAAATATATGTACATATATATATATATAT [XGTACX_site7433]	9.18
GATTTTAAAATAATTACACACTTGATTATGTCCAAA [CACACA_site3491]	6.41
TAAATATTTATAAACACACAAATATTTATATTTATA [CACACA_site6166]	6.08
TTTATTTATTAATACACACACACACGCCCACAAAAT [CACACA_site6253]	7.3
AGGGACATATATATCACACACAAAAATTAGTCCCTT [CACACA_site2778]	6.4
AAATAGAGAAATACAAGTACATATCAAACCAATCTA [XGTACX_site2756]	6.25
ATGAATATAATGAAGTGTACATAAAAATAATAAATA [XGTACX_site2481]	6.95
ATACATATAGGATGCACACATAATTCAAATACAATA [CACACA_site651]	8.83

Sequence	gcPBM binding intensity (ln)
TTTGAAATATATTTAGTGCATATATATTGATTATAA [GTGCAC_site9604]	9.41
CAATTTTGCCCTTCCTGTACATATATTGAAAAATAT [XGTACX_site6388]	6.41
ATCTAGTACATACATACACACAACAATGTTATGAGA [CACACA_site3989]	6.6
GAAAGGGCAGGAACTATTAATACACTGATCGATAAG [CACACA_negctrl_site1458]	6.53
AATTATAGCTGTATCTGTACGCATTTATTTATAGAC [XGTACX_site5959]	6.35
TTAAATAATATTAGCCGTACAATTTAAAGATAATAA [XGTACX_site8503]	6.26
AAAAAAAAGTATGATTCTAAATTTATGTATATATAA [GTGCAC_negctrl_site669]	6.1
TTTAATACTTTATATGCATGCAGAGAAAAATGCTTG [TGCATGCA_site286]	6.38
ATTGTTTTATATAGAACACACATAAAAATATATATG [CACACA_site1193]	6.3
ATAAAATGAAATATATATGTGTATGCTTAACTTGTT [CACACA_negctrl_site431]	6.48
AAAGGATGTAATATAAACATATATATGTATATATAT [TGCATGCA_negctrl_site347]	6.87
TAATTTTTTTTAATAACACACATATATATATATATA [CACACA_site813]	9.38
TAATATTCCTTTTTAACACACATATGAACAAATAAA [CACACA_site153]	6.63
ATATTAAACAGACACACACACATATATTTATTTATA [CACACA_site7564]	6.78
TATAGCATATCTCACACACACATAATGAATATTATA [CACACA_site5877]	6.55
TATAGCTATGTATTCACACATAATATAAACTTTAAT [CACACA_site5889]	6.31
AAAATGAACTCACGAGCACACACACCCATATATATA [CACACA_site8247]	7.05
TGTATTATATAAAATTGTACATGCGAATTGTATAAC [XGTACX_site902]	7.27
AAATATTACCATGTGAAAATTTTACTGCAACATGAA [TGCATGCA_negctrl_site609]	7.06
TAAAAATTTACATGTTGTACATATAATTATATAATC [XGTACX_site4577]	6.4
AGGCTGCCATATTATACACACATTTTTAAAAAAATT [CACACA_site3843]	6.72
TAGTTAGGCCCTACATGTACATAATATATATTACTT [XGTACX_site1137]	7.3

Sequence	gcPBM binding intensity (ln)
ATCAACATTACATTTAGTACACATATATTTCTATGT [XGTACX_site4436]	6.84
CTAATTAATATTTGTACACACATATTTAACCTACTA [CACACA_site3191]	6.64
TATATAAGTATAAAATGTACATAAAATTTTATGTTA [XGTACX_site2613]	6.34
TAAAATTCGAAAAATTGTACTATTTATATATCTGTA [XGTACX_site6478]	5.98
ATAATTTCAATATTTAATATCATATATATATATTTT [GTGCAC_negctrl_site713]	6.41
TAAAACAAAACAAAAATAGGATTATATTCCTTTTTT [CACACA_negctrl_site1003]	5.9
ATATATATATATATATGTACATATGTGTATATAACT [XGTACX_site495]	9.41
AAATAAAAAAATACCCAACACCATGCCAAATGTGAA [CACACA_negctrl_site411]	6.47
ACAAAATGTAAATAAACACACATATTTATATTTATA [CACACA_site6719]	6.24
AATTCACCAAAAAAAGTGCATATTCAATATATATTA	7.19
AATAAAATATTATGTGCATGCTGTTTTATTTATTAA [TGCATGCA_site102]	7.73
TTGGTGGATAAATTTACACACAATAATTTTCGTTCA [CACACA_site467]	6.46
AATATATATTAAATATGTACTTATTTTTTGGTTGCT [XGTACX_site3613]	6.58
CGCACCCACAGACACACACACACATATATATATATA [CACACA_site2202]	9.31
TACATACAGAAACACACACACACATATATATATATA [CACACA_site2919]	9.13
AAAGAATAATTAAATACACACATATTACAGTAAAAA [CACACA_site2450]	6.79
AAAATATATTAAGGCACACACATACATATTTATATA [CACACA_site7707]	6.72
AGATCAATAATGACAAGTACACAAAATAACATTTAA [XGTACX_site6968]	6.22
ACAAAAAAAAAAAAAAAAAAAAAAAAAAAATAATAA [CACACA_negctrl_site1640]	5.72
ATTTTGTAAAAGGTCATACACACATATTCAAAAGAA [CACACA_site2946]	6.49
AAAAATCATATAGGTTGTACGGGTAGTTTATTTTAT [XGTACX_site6936]	6.59
GTGTATATATGTTATACACACAAAAATATTTTGTAT [CACACA_site265]	6.73

Sequence	gcPBM binding intensity (ln)
TTATATATGACTAACGGTTTTTTTTTTTTTTTTTTT [CACACA_negctrl_site576]	6.79
ATATGAAGTATCGAATTAAGGGCAACAAATAAATTA [CACACA_negctrl_site1116]	6.37
TTATTATATAAAGTTTCACACATTATTTGTTCAAAC [CACACA_site5218]	6.26
TACATATATAAATATGTACACACATATGTATGATCT [CACACA_site9284]	6.52
AATATAAGCAAATACACACACACATATAAATATGTA [CACACA_site7741]	7.03
AAAAAAATAATATAAATAATGAAAAGATATAAATAA [GTGCAC_negctrl_site432]	6.33
TAATATCAATTTTTATGTACTTATATATATATATAT [XGTACX_site5879]	8.9
AGTAGTCTGGAGAAGAGTACACAGTATCTGGTAACA [XGTACX_site2032]	6.02
ATTGAGAGAAAAAAATGTACTTGATCAAAATGGATA [XGTACX_site1649]	6.69
TATATATATTTTATGTGTACTCAATGTTATAACGCA [XGTACX_site8360]	6.76
AATAGAGTTGAATGCACACATACAAATTTTTAGTTT [CACACA_site3564]	8.97
TGTACAGTATATACAACACACATTTGTATAAATATA [CACACA_site1002]	6.59
TGTACACCCAGAAATGCACACACATATATATATATA [CACACA_site8716]	9.88
TGCATAATTAAAAATGGTACACTGTATTTATAATAT [XGTACX_site1575]	6.38
TATAAATTAAGATAACGTACATATAATAATATAAAC [XGTACX_site487]	6.49
TCTTTTGCCCAAAAAGGTACACACCACAATTTAAAT [XGTACX_site1482]	6.75
TATTGTATGGTAGGATATGATGTTATTTGTTATAAT [CACACA_negctrl_site202]	6.49
ATATATATATCACGCACACACGAATTTTAAATATAT [CACACA_site5691]	8.17
TTATTTTTACAATTTTAATAATAATACTAAAACAAA [XGTACX_negctrl_site538]	6.02
TTCTATATAATTCAAACATGCACAGGAAATATTATA [TGCATGCA_site290]	8.31
AACAATGTTTTCTTGTGTACACATCATTAAAGAAAA [XGTACX_site4726]	6.85
ATAATATATATATATACGCACACTTATGTACGGATT [CACACA_site2120]	6.85
